Test results: paper PMC4077589
No constants are given. Whether binding was seen depends on the method and setting. In cells and extracts the contact can be indirect. Some results given as binding are weak or reduced against the parent protein; the word gives no strength. Tags and fused reporters may be left off the sequences shown.

T1: full-length TMEM115–FLAG–HIS (in vitro translated) (human) (UniProt Q12893)
T1 sequence: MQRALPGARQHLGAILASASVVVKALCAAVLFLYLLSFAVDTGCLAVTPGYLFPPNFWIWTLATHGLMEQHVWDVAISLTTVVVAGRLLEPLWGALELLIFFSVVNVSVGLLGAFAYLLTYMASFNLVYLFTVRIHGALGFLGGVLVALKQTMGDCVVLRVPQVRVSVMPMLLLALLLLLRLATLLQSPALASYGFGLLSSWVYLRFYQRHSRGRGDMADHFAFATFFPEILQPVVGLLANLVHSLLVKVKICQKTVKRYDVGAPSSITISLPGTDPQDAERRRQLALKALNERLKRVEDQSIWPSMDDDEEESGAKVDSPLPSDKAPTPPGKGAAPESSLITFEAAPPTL


What was measured:
[1] = molecular target: T1, full-length TMEM115–FLAG–HIS (in vitro translated) (human); assay: co-IP; in vitro translated products combined in cell lysis buffer, FLAG immunoprecipitation, beads washed with cell lysis buffer containing 150 mM NaCl
[2] = molecular target: T1, full-length TMEM115–FLAG–HIS (in vitro translated) (human); assay: co-IP; in vitro translated products combined in cell lysis buffer, FLAG immunoprecipitation, beads washed with cell lysis buffer containing 500 mM NaCl

Row | Binder | binding [1] | binding [2]
1 | Myc-tagged COG6 (in vitro translated) (protein, UniProt Q9Y2V7 1-657) MAEGSGEVVAVSATGAANGLNNGAGGTSATTCNPLSRKLHKILETRLDNDKEMLEALKALSTFFVENSLRTRRNLRGDIERKSLAINEEFVSIFKEVKEELESISEDVQAMSNCCQDMTSRLQAAKEQTQDLIVKTTKLQSESQKLEIRAQVADAFLSKFQLTSDEMSLLRGTREGPITEDFFKALGRVKQIHNDVKVLLRTNQQTAGLEIMEQMALLQETAYERLYRWAQSECRTLTQESCDVSPVLTQAMEALQDRPVLYKYTLDEFGTARRSTVVRGFIDALTRGGPGGTPRPIEMHSHDPLRYVGDMLAWLHQATASEKEHLEALLKHVTTQGVEENIQEVVGHITEGVCRPLKVRIEQVIVAEPGAVLLYKISNLLKFYHHTISGIVGNSATALLTTIEEMHLLSKKIFFNSLSLHASKLMDKVELPPPDLGPSSALNQTLMLLREVLASHDSSVVPLDARQADFVQVLSCVLDPLLQMCTVSASNLGTADMATFMVNSLYMMKTTLALFEFTDRRLEMLQFQIEAHLDTLINEQASYVLTRVGLSYIYNTVQQHKPEQGSLANMPNLDSVTLKAAMVQFDRYLSAPDNLLIPQLNFLLSATVKEQIVKQSTELVCRAYGEVYAAVMNPINEYKDPENILHRSPQQVQTLLS | – | no binding (condition: beads washed with 500 mM NaCl)
2 | Myc-tagged COG3 (in vitro translated) (protein, UniProt Q96JB2 1-828) MAEAALLLLPEAAAERDAREKLALWDRRPDTTAPLTDRQTDSVLELKAAAENLPVPAELPIEDLCSLTSQSLPIELTSVVPESTEDILLKGFTSLGMEEERIETAQQFFSWFAKLQTQMDQDEGTKYRQMRDYLSGFQEQCDAILNDVNSALQHLESLQKQYLFVSNKTGTLHEACEQLLKEQSELVDLAENIQQKLSYFNELETINTKLNSPTLSVNSDGFIPMLAKLDDCITYISSHPNFKDYPIYLLKFKQCLSKALHLMKTYTVNTLQTLTSQLLKRDPSSVPNADNAFTLFYVKFRAAAPKVRTLIEQIELRSEKIPEYQQLLNDIHQCYLDQRELLLGPSIACTVAELTSQNNRDHCALVRSGCAFMVHVCQDEHQLYNEFFTKPTSKLDELLEKLCVSLYDVFRPLIIHVIHLETLSELCGILKNEVLEDHVQNNAEQLGAFAAGVKQMLEDVQERLVYRTHIYIQTDITGYKPAPGDLAYPDKLVMMEQIAQSLKDEQKKVPSEASFSDVHLEEGESNSLTKSGSTESLNPRPQTTISPADLHGMWYPTVRRTLVCLSKLYRCIDRAVFQGLSQEALSACIQSLLGASESISKNKTQIDGQLFLIKHLLILREQIAPFHTEFTIKEISLDLKKTRDAAFKILNPMTVPRFFRLNSNNALIEFLLEGTPEIREHYLDSKKDVDRHLKSACEQFIQQQTKLFVEQLEEFMTKVSALKTMASQGGPKYTLSQQPWAQPAKVNDLAATAYKTIKTKLPVTLRSMSLYLSNKDTEFILFKPVRNNIQQVFQKFHALLKEEFSPEDIQIIACPSMEQLSLLLLVSK | – | no binding (condition: beads washed with 500 mM NaCl)
3 | Myc-tagged COG1 (in vitro translated) (protein, UniProt Q8WTW3 1-980) MATAATSPALKRLDLRDPAALFETHGAEEIRGLERQVRAEIEHKKEELRQMVGERYRDLIEAADTIGQMRRCAVGLVDAVKATDQYCARLRQAGSAAPRPPRAQQPQQPSQEKFYSMAAQIKLLLEIPEKIWSSMEASQCLHATQLYLLCCHLHSLLQLDSSSSRYSPVLSRFPILIRQVAAASHFRSTILHESKMLLKCQGVSDQAVAEALCSIMLLEESSPRQALTDFLLARKATIQKLLNQPHHGAGIKAQICSLVELLATTLKQAHALFYTLPEGLLPDPALPCGLLFSTLETITGQHPAGKGTGVLQEEMKLCSWFKHLPASIVEFQPTLRTLAHPISQEYLKDTLQKWIHMCNEDIKNGITNLLMYVKSMKGLAGIRDAMWELLTNESTNHSWDVLCRRLLEKPLLFWEDMMQQLFLDRLQTLTKEGFDSISSSSKELLVSALQELESSTSNSPSNKHIHFEYNMSLFLWSESPNDLPSDAAWVSVANRGQFASSGLSMKAQAISPCVQNFCSALDSKLKVKLDDLLAYLPSDDSSLPKDVSPTQAKSSAFDRYADAGTVQEMLRTQSVACIKHIVDCIRAELQSIEEGVQGQQDALNSAKLHSVLFMARLCQSLGELCPHLKQCILGKSESSEKPAREFRALRKQGKVKTQEIIPTQAKWQEVKEVLLQQSVMGYQVWSSAVVKVLIHGFTQSLLLDDAGSVLATATSWDELEIQEEAESGSSVTSKIRLPAQPSWYVQSFLFSLCQEINRVGGHALPKVTLQEMLKSCMVQVVAAYEKLSEEKQIKKEGAFPVTQNRALQLLYDLRYLNIVLTAKGDEVKSGRSKPDSRIEKVTDHLEALIDPFDLDVFTPHLNSNLHRLVQRTSVLFGLVTGTENQLAPRSSTFNSQEPHNILPLASSQIRFGLLPLSMTSTRKAKSTRNIETKAQVVPPARSTAGDPTVPGSLFRQLVSEEDNTSAPSLFKLGWLSSMTK | binds | no binding (condition: beads washed with 500 mM NaCl)

Second part, led by results:

Row | binding [1] | Binder | binding [2]
4 | binds | Myc-tagged COG5 (in vitro translated) (protein, UniProt Q9UP83 1-860) MGWVGGRRRDSASPPGRSRSAADDINPAPANMEGGGGSVAVAGLGARGSGAAAATVRELLQDGCYSDFLNEDFDVKTYTSQSIHQAVIAEQLAKLAQGISQLDRELHLQVVARHEDLLAQATGIESLEGVLQMMQTRIGALQGAVDRIKAKIVEPYNKIVARTAQLARLQVACDLLRRIIRILNLSKRLQGQLQGGSREITKAAQSLNELDYLSQGIDLSGIEVIENDLLFIARARLEVENQAKRLLEQGLETQNPTQVGTALQVFYNLGTLKDTITSVVDGYCATLEENINSALDIKVLTQPSQSAVRGGPGRSTMPTPGNTAALRASFWTNMEKLMDHIYAVCGQVQHLQKVLAKKRDPVSHICFIEEIVKDGQPEIFYTFWNSVTQALSSQFHMATNSSMFLKQAFEGEYPKLLRLYNDLWKRLQQYSQHIQGNFNASGTTDLYVDLQHMEDDAQDIFIPKKPDYDPEKALKDSLQPYEAAYLSKSLSRLFDPINLVFPPGGRNPPSSDELDGIIKTIASELNVAAVDTNLTLAVSKNVAKTIQLYSVKSEQLLSTQGDASQVIGPLTEGQRRNVAVVNSLYKLHQSVTKVVSSQSSFPLAAEQTIISALKAIHALMENAVQPLLTSVGDAIEAIIITMHQEDFSGSLSSSGKPDVPCSLYMKELQGFIARVMSDYFKHFECLDFVFDNTEAIAQRAVELFIRHASLIRPLGEGGKMRLAADFAQMELAVGPFCRRVSDLGKSYRMLRSFRPLLFQASEHVASSPALGDVIPFSIIIQFLFTRAPAELKSPFQRAEWSHTRFSQWLDDHPSEKDRLLLIRGALEAYVQSVRSREGKEFAPVYPIMVQLLQKAMSALQ | no binding (condition: beads washed with 500 mM NaCl)
5 | binds | Myc-tagged COG2 (in vitro translated) (protein, UniProt Q14746 1-738) MEKSRMNLPKGPDTLCFDKDEFMKEDFDVDHFVSDCRKRVQLEELRDDLELYYKLLKTAMVELINKDYADFVNLSTNLVGMDKALNQLSVPLGQLREEVLSLRSSVSEGIRAVDERMSKQEDIRKKKMCVLRLIQVIRSVEKIEKILNSQSSKETSALEASSPLLTGQILERIATEFNQLQFHAVQSKGMPLLDKVRPRIAGITAMLQQSLEGLLLEGLQTSDVDIIRHCLRTYATIDKTRDAEALVGQVLVKPYIDEVIIEQFVESHPNGLQVMYNKLLEFVPHHCRLLREVTGGAISSEKGNTVPGYDFLVNSVWPQIVQGLEEKLPSLFNPGNPDAFHEKYTISMDFVRRLERQCGSQASVKRLRAHPAYHSFNKKWNLPVYFQIRFREIAGSLEAALTDVLEDAPAESPYCLLASHRTWSSLRRCWSDEMFLPLLVHRLWRLTLQILARYSVFVNELSLRPISNESPKEIKKPLVTGSKEPSITQGNTEDQGSGPSETKPVVSISRTQLVYVVADLDKLQEQLPELLEIIKPKLEMIGFKNFSSISAALEDSQSSFSACVPSLSSKIIQDLSDSCFGFLKSALEVPRLYRRTNKEVPTTASSYVDSALKPLFQLQSGHKDKLKQAIIQQWLEGTLSESTHKYYETVSDVLNSVKKMEESLKRLKQARKTTPANPVGPSGGMSDDDKIRLQLALDVEYLGEQIQKLGLQASDIKSFSALAELVAAAKDQATAEQP | no binding (condition: beads washed with 500 mM NaCl)
6 | binds | Myc-tagged COG4 (in vitro translated) (protein, UniProt Q9H9E3 1-785) MADLDSPPKLSGVQQPSEGVGGGRCSEISAELIRSLTELQELEAVYERLCGEEKVVERELDALLEQQNTIESKMVTLHRMGPNLQLIEGDAKQLAGMITFTCNLAENVSSKVRQLDLAKNRLYQAIQRADDILDLKFCMDGVQTALRSEDYEQAAAHTHRYLCLDKSVIELSRQGKEGSMIDANLKLLQEAEQRLKAIVAEKFAIATKEGDLPQVERFFKIFPLLGLHEEGLRKFSEYLCKQVASKAEENLLMVLGTDMSDRRAAVIFADTLTLLFEGIARIVETHQPIVETYYGPGRLYTLIKYLQVECDRQVEKVVDKFIKQRDYHQQFRHVQNNLMRNSTTEKIEPRELDPILTEVTLMNARSELYLRFLKKRISSDFEVGDSMASEEVKQEHQKCLDKLLNNCLLSCTMQELIGLYVTMEEYFMRETVNKAVALDTYEKGQLTSSMVDDVFYIVKKCIGRALSSSSIDCLCAMINLATTELESDFRDVLCNKLRMGFPATTFQDIQRGVTSAVNIMHSSLQQGKFDTKGIESTDEAKMSFLVTLNNVEVCSENISTLKKTLESDCTKLFSQGIGGEQAQAKFDSCLSDLAAVSNKFRDLLQEGLTELNSTAIKPQVQPWINSFFSVSHNIEEEEFNDYEANDPWVQQFILNLEQQMAEFKASLSPVIYDSLTGLMTSLVAVELEKVVLKSTFNRLGGLQFDKELRSLIAYLTTVTTWTIRDKFARLSQMATILNLERVTEILDYWGPNSGPLTWRLTPAEVRQVLALRIDFRSEDIKRLRL | binds
